± gives the standard deviation of the averaged measurements.
Experiments:
hTERT-HMEC = test: percentage of EdU-negative (G0-arrested) nuclei per well, 72 h; higher = more G0 arrest; details: reference: sequence is the full UniProt precursor, the tested protein was the secreted form or ectodomain
MCF7 = test: as above; details: reference: sequence is the full UniProt precursor, the tested protein was the secreted form or ectodomain
[1] = protein concentration 0.0225 µM
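Note: secreted proteins added to cultured cells, EdU pulse at the end, nuclei found by Hoechst imaging, EdU status from nuclear versus surrounding ring intensity ratio, PBS as neutral control.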

MTWRHHVRLLFTVSLALQIINLGNSYQREKHNGGREEVTKVATQKHRQSPLNWTSSHFGEVTGSAEGWGPEEPLPYSRAFGEGASARPRCCRNGGTCVLGSFCVCPAHFTGRYCEHDQRRSECGALEHGAWTLRACHLCRCIFGALHCLPLQTPDRCDPKDFLASHAHGPSAGGAPSLLLLLPCALLHRLLRPDAPAHPRSLVPSVLQRERRPCGRPGLGHRL [P0CG37]
percentage of EdU-negative (hTERT-HMEC; [1]): 3.95 ± 0.99%
percentage of EdU-negative (hTERT-HMEC; protein concentration 0.225 µM): 5.06 ± 0.65%
percentage of EdU-negative (MCF7; [1]): 26.8 ± 0.65%
percentage of EdU-negative (MCF7; protein concentration 0.225 µM): 31 ± 0.7%

MVFQTRYPSWIILCYIWLLRFAHTGEAQAAKEVLLLDSKAQQTELEWISSPPNGWEEISGLDENYTPIRTYQVCQVMEPNQNNWLRTNWISKGNAQRIFVELKFTLRDCNSLPGVLGTCKETFNLYYYETDYDTGRNIRENLYVKIDTIAADESFTQGDLGERKMKLNTEVREIGPLSKKGFYLAFQDVGACIALVSVKVYYKKCWSIIENLAIFPDTVTGSEFSSLVEVRGTCVSSAEEEAENAPRMHCSAEGEWLVPIGKCICKAGYQQKGDTCEPCGRGFYKSSSQDLQCSRCPTHSFSDKEGSSRCECEDGYYRAPSDPPYVACTRPPSAPQNLIFNINQTTVSLEWSPPADNGGRNDVTYRILCKRCSWEQGECVPCGSNIGYMPQQTGLEDNYVTVMDLLAHANYTFEVEAVNGVSDLSRSQRLFAAVSITTGQAAPSQVSGVMKERVLQRSVELSWQEPEHPNGVITEYEIKYYEKDQRERTYSTVKTKSTSASINNLKPGTVYVFQIRAFTAAGYGNYSPRLDVATLEEATGKMFEATAVSSEQNPVIIIAVVAVAGTIILVFMVFGFIIGRRHCGYSKADQEGDEELYFHFKFPGTKTYIDPETYEDPNRAVHQFAKELDASCIKIERVIGAGEFGEVCSGRLKLPGKRDVAVAIKTLKVGYTEKQRRDFLCEASIMGQFDHPNVVHLEGVVTRGKPVMIVIEFMENGALDAFLRKHDGQFTVIQLVGMLRGIAAGMRYLADMGYVHRDLAARNILVNSNLVCKVSDFGLSRVIEDDPEAVYTTTGGKIPVRWTAPEAIQYRKFTSASDVWSYGIVMWEVMSYGERPYWDMSNQDVIKAIEEGYRLPAPMDCPAGLHQLMLDCWQKERAERPKFEQIVGILDKMIRNPNSLKTPLGTCSRPISPLLDQNTPDFTTFCSVGEWLQAIKMERYKDNFTAAGYNSLESVARMTIEDVMSLGITLVGHQKKIMSSIQTMRAQMLHLHGTGIQV
percentage of EdU-negative (hTERT-HMEC; [1]): 5.15 ± 0.097%
percentage of EdU-negative (hTERT-HMEC; protein concentration 0.225 µM): 5.51 ± 0.13%
percentage of EdU-negative (MCF7; [1]): 28.9 ± 0.44%
percentage of EdU-negative (MCF7; protein concentration 0.225 µM): 26.9 ± 1.1%

MVRSVAWAGFMVLLMIPWGSAAKLVCYFTNWAQYRQGEARFLPKDLDPSLCTHLIYAFAGMTNHQLSTTEWNDETLYQEFNGLKKMNPKLKTLLAIGGWNFGTQKFTDMVATANNRQTFVNSAIRFLRKYSFDGLDLDWEYPGSQGSPAVDKERFTTLVQDLANAFQQEAQTSGKERLLLSAAVPAGQTYVDAGYEVDKIAQNLDFVNLMAYDFHGSWEKVTGHNSPLYKRQEESGAAASLNVDAAVQQWLQKGTPASKLILGMPTYGRSFTLASSSDTRVGAPATGSGTPGPFTKEGGMLAYYEVCSWKGATKQRIQDQKVPYIFRDNQWVGFDDVESFKTKVSYLKQKGLGGAMVWALDLDDFAGFSCNQGRYPLIQTLRQELSLPYLPSGTPELEVPKPGQPSEPEHGPSPGQDTFCQGKADGLYPNPRERSSFYSCAAGRLFQQSCPTGLVFSNSCKCCTWN
percentage of EdU-negative (hTERT-HMEC; [1]): 5.45 ± 0.53%
percentage of EdU-negative (hTERT-HMEC; protein concentration 0.225 µM): 5.69 ± 1%
percentage of EdU-negative (MCF7; [1]): 25.7 ± 0.76%
percentage of EdU-negative (MCF7; protein concentration 0.225 µM): 25.5 ± 2.2%

From the supplement of paper PMC11316812
